# Values joined by “and” are separate entries in the source; they are usually repeats but may differ in a detail not shown here. Equal values may be shown once. About 64,000 (15%) of roughly 420,000 compounds were called active. Inconclusive means that the source gave no clear call. Such entries were picked first, then a sample of the others. Calls follow the shape of the dose curve; as a rule, active = well fitted inhibition curve with a large enough effect; inconclusive = small, poorly fitted or top-dose-only effect; inactive = flat fitted curve, though single readings scatter. Where the call is inconclusive, the potency comes from a doubtful curve fit.
# Assay: qHTS for Inhibitors of human tyrosyl-DNA phosphodiesterase 1 (TDP1): qHTS in cells in absence of CPT; also: nearly all actives have a fitted effect of over 55% in size
# Details: DT40 Tdp1-/- hTDP1 cells, no CPT, ATP luminescence, 48 h; activity change, negative = growth inhibition: at 46.2 µM (top of the series) unless noted
# Method in brief: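 Chicken DT40 Tdp1-/- cells stably complemented with human TDP1 were seeded at 400 cells/well with DMSO in place of 20 nM camptothecin. After compound pinning, cells grew at least 48 hr at 37 °C; viability read by CellTiter-Glo luminescence.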
# % is scaled to controls: 0 for no effect and ±100 for the full control effect; potency is read from the fitted curve at half-maximal effect; tags tell the direction and shape of the fitted curve.
SMILES,Potency,"activity change, negative = growth inhibition"
Nc1c(C(=O)c2ccccc2)sc2snc(SCC(=O)c3ccccc3)c12,"inconclusive: 25.9 µM [inhibitor, single point]",
Cc1ccc(OCC(=O)Nc2ccc(Cl)cc2)c([N+](=O)[O-])n1,,inactive: 1.41%
CC(C)NCC#CCOc1ccc(Cl)cc1,"inconclusive: 29.1 µM [inhibitor, single point]",
COc1ccc(NS(=O)(=O)c2cc3c(cc2C)N(C(C)=O)CCO3)c(OC)c1,"inconclusive: 29.1 µM [inhibitor, single point]",
COc1ccccc1NC(=O)CSc1nnc(COc2ccccc2C)o1,"inconclusive: 29.1 µM [inhibitor, single point]",
CCOc1ccccc1NC(=O)CN1C(=O)C(=O)N(Cc2ccco2)C1=O,,inactive: -13.7%
N#CC1=C(N)Oc2cc(O)c(Cl)cc2C1c1cccnc1 (centres undefined),"inconclusive: 0.0046 µM [inhibitor, full curve, poor fit]",
Cc1ccccc1CNC(=O)C(=O)NCC(c1cccs1)S(=O)(=O)c1ccc(Cl)cc1 (centres undefined),active: 23.1 µM,
CCNC(=O)C1CCCN(C(=O)c2ccccc2)CC1 (centres undefined),,inactive: -13%
CCN(CC)CCOc1ccc2nc(N(C)C)sc2c1,"inconclusive: 13.3 µM [inhibitor, partial curve, poor fit] and inconclusive: 16.4 µM [inhibitor, single point]",
COc1ccc(-c2nc(NC(=O)C3CCN(c4nc5ccccc5o4)CC3)sc2C)cc1,"inconclusive: 18.4 µM [inhibitor, single point]",
CN=c1sc(C(=O)Nc2ccccc2)c(C)n1C,"inconclusive: 13 µM [inhibitor, partial curve, poor fit]",
COc1ccc(C(=O)NC(=S)Nc2ccc3[nH]c(=O)[nH]c3c2)c(OC)c1,,inactive: 18%
COc1ccc(NC(=O)Nc2ccccc2OCc2cc(=O)n3ccccc3n2)c(OC)c1,"inconclusive: 16.4 µM [inhibitor, partial curve]",
NC(=O)CSc1nnc2ccc(-c3ccc(F)cc3)nn12,,inactive: 0.593%
CC(=O)N(c1nnc(-c2ccc(C)cc2)s1)C1CCCC1,"inconclusive: 25.9 µM [inhibitor, single point]",
CCCOc1ccc(Cc2c(Cl)nc(SC)nc2N(C)C)cc1,active: 14.6 µM,
COc1ccccc1CNC(=O)c1ccc(NC2=NC3CS(=O)(=O)CC3S2)cc1 (centres undefined),,inactive: 17.7%
CC(=O)c1cnc(SCCN2C(=O)c3ccccc3C2=O)nc1C,,inactive: -15.3%
CCN(CC)c1ccc(NC(=O)CN2C(=O)c3cccnc3Sc3ccccc32)c(C)c1,active: 13 µM,
COC(=O)c1[nH]c2ccccc2c1NC(=O)CN1CCCc2ccccc21,"inconclusive: 18.4 µM [inhibitor, single point]",
Cc1ccc(-c2cc(C(=O)N/N=C/C=C/c3ccccc3)n[nH]2)o1,,inactive: -12.2%
Cn1nc(C(=O)OCC(=O)Nc2cc(Cl)ccc2C#N)c2ccccc2c1=O,,inactive: 19.5%

SMILES,Potency,"activity change, negative = growth inhibition"
COC(=O)c1ccccc1NC(=O)Cn1c(=O)n(CCC(=O)NC2CCN(Cc3ccccc3)CC2)c(=O)c2ccccc21,"inconclusive: 16.4 µM [inhibitor, single point]",
COCCN1Cc2cccc(C(=O)Nc3ccc(Cl)cc3Cl)c2C1=O,"inconclusive: 29.1 µM [inhibitor, single point]",
COC(=O)c1ccc(CNC(=O)COC(=O)c2ccc(N(C)C)cc2)cc1,"inconclusive: 20.6 µM [inhibitor, single point]",
COC(=O)CCN(C(=O)c1ccc(N2CCCC2)c([N+](=O)[O-])c1)c1ccccn1,,inconclusive: -30.9% [inhibitor]
COc1cc(C(=S)N2CCCC2)cc(OC)c1OS(=O)(=O)c1ccc(NC(C)=O)cc1,"inconclusive: 29.1 µM [inhibitor, single point]",
COc1ccc2oc(-c3ccc(C)c(NC(=O)CSc4ccc(Cl)cc4)c3)nc2c1,"inconclusive: 29.1 µM [inhibitor, partial curve, poor fit]",
S=c1[nH]nc(-c2ccc3ccccc3n2)o1,"inconclusive: 20.6 µM [inhibitor, partial curve]",
CCCn1c(NC(=O)CCNC(=O)c2ccccc2Cl)nc2ccccc21,"inconclusive: 18.4 µM [inhibitor, partial curve]",
CCCc1nc(Nc2nc3ccccc3o2)nc(C)c1C(=O)OCC,"inconclusive: 29.1 µM [inhibitor, single point]",
CC(=O)N1c2ccc(S(=O)(=O)N3CCN(c4cccc(Cl)c4)CC3)cc2CC1C (centres undefined),"inconclusive: 9.2 µM [inhibitor, partial curve]",
CCOc1cc(C2C(C(=O)OC)=C(C)NC3=C2C(=O)c2ccccc23)c(Br)cc1O (centres undefined),active: 18.4 µM,
CCCn1cc2c(c1-c1cccc(C)c1)c(=O)n(C)c(=O)n2C,"inconclusive: 20.6 µM [inhibitor, single point]",
Cc1cccc(NC(=O)c2nc[nH]c2C(=O)NCc2ccccc2)c1,"inconclusive: 25.9 µM [inhibitor, single point]",
C=CCN(CC=C)S(=O)(=O)c1ccc(C(=O)Nc2nnc(COC)o2)cc1,active: 16.4 µM,
CC(=O)N1CCc2c(sc3c2c(=O)n(CCc2ccccc2)c(=O)n3Cc2cccc(C)c2)C1,active: 16.4 µM,
Cc1nn(-c2ccccc2)c(N)c1C(c1ccc(C(C)C)cc1)c1c(C)nn(-c2ccccc2)c1N,"inconclusive: 29.1 µM [inhibitor, single point]",
S=c1[nH]cc(-c2ccccc2)n1-c1cccc(Cl)c1,"inconclusive: 20.6 µM [inhibitor, single point]",
Cc1ccccc1C(=O)Nc1ccc(-c2nnc(SC(C)C(=O)O)n2C)cc1 (centres undefined),,inactive: 21.7%
NC(=O)NC(Cc1ccccc1)C(=O)NCCCSc1ccccc1 (centres undefined),,inactive: -16.3%
CC1Cc2cc(/C(O)=C3\C(=O)C(=O)N(CCN(C)C)C3c3ccccc3F)ccc2O1 (centres undefined),,inactive: -10.5%
CN(CC(=O)NCCc1ccc(Cl)cc1)S(=O)(=O)c1ccc2c(c1)c(=O)n(C)c(=O)n2C,"inconclusive: 29.1 µM [inhibitor, single point]",
COc1nccnc1NS(=O)(=O)c1ccc(NS(=O)(=O)c2ccc(NC(C)=O)cc2)cc1,,inactive: 0.0777%
COc1ccc(N2CCN(C3C(=O)c4ccccc4N3C(C)=O)CC2)cc1 (centres undefined),"inconclusive: 16.4 µM [inhibitor, single point]",

SMILES,Potency,"activity change, negative = growth inhibition"
Cc1cccc(NS(=O)(=O)c2cc3c(cc2C)N(C)CCO3)c1,,inactive: -32.4%
Cc1nn(Cc2cccc(C(=O)N3CCCC(C)C3)c2)c(C)c1[N+](=O)[O-] (centres undefined),"inconclusive: 23.1 µM [inhibitor, single point]",
O=C(Oc1cccc2ccccc12)c1cc(Cl)nc2ccccc12,"inconclusive: 8.2 µM [inhibitor, partial curve]",
O=C(N/N=C/c1c[nH]c2ccccc12)c1cc(-c2ccc(-c3ccccc3)cc2)n[nH]1,"inconclusive: 29.1 µM [inhibitor, single point]",
O=C(CSc1nnnn1-c1ccccc1)Nc1ncc2c(n1)CC(c1ccco1)CC2=O (centres undefined),"inconclusive: 13 µM [inhibitor, partial curve, poor fit]",
CCOC(=O)C1(Cc2ccccc2C)CCCN(C(=O)CCC(=O)OC)C1 (centres undefined),"inconclusive: 29.1 µM [inhibitor, single point]",
Cc1ccc(-c2c3c(=O)n(C)c(=O)n(C)c3cn2-c2cc(C)ccc2O)cc1,"inconclusive: 29.1 µM [inhibitor, single point]",
Clc1ccc(C=NNc2ccccn2)c(Cl)c1,,inactive: 1.33%
CCOC(=O)N1CCN(C(=O)c2cccn3c(=O)c4c5c(sc4nc23)CCCC5)CC1,"inconclusive: 29.1 µM [inhibitor, single point]",
O=C(NCc1cccc(Cl)c1)C1Cc2c(-c3ccccc3)ccnc2O1 (centres undefined),active: 16.4 µM,
CNS(=O)(=O)c1ccc(C(=O)NCC(=O)NCCC(c2ccccc2)c2ccccc2)cc1,,inactive: 4.86%
O=C(NC(=S)Nc1ccccc1C(F)(F)F)c1ccccc1F,"inconclusive: 20.6 µM [inhibitor, partial curve]",
Cc1ccc(S(=O)(=O)c2ccc(Oc3ccccc3)cc2)cc1,"inconclusive: 20.6 µM [inhibitor, single point]",
CCNC(=O)C1(C)CCN1CCC(=O)c1ccc(Br)cc1 (centres undefined),active: 16.4 µM,
O=C(NCC1CCCO1)c1ccccc1-c1nc(-c2ccccc2Cl)no1 (centres undefined),"inconclusive: 23.1 µM [inhibitor, single point]",
O=C(NCc1ccccc1)c1ccc(CS(=O)(=O)Cc2ccccc2F)o1,"inconclusive: 29.1 µM [inhibitor, single point]",
Cc1cc(O)c(/C=N/OCc2ccc(Cl)cc2Cl)c(=O)o1,"inconclusive: 29.1 µM [inhibitor, single point]",
CCC/C(O)=C1\C(=O)CCCC1=NCCc1c(C)[nH]c2ccc(C)cc12,"inconclusive: 29.1 µM [inhibitor, single point]",
CN(C)c1ccc(-c2ccnc3c2CC(C)(C(=O)NCCC(F)(F)F)O3)cc1 (centres undefined),active: 5.8 µM,
CC12CCC(C(=O)Nc3cccc(Cl)c3Cl)([C@H](Br)C1=O)C2(C)C (some centres undefined),"inconclusive: 16.4 µM [inhibitor, single point]",
O=C1C2C3CCCC3=C3CCCC3C2C(=O)N1c1ccc(F)cc1 (centres undefined),active: 18.4 µM,
CC(C1CC2CCC1C2)n1c(-c2cccs2)n[nH]c1=S (centres undefined),"inconclusive: 16.4 µM [inhibitor, single point]",
O=C(COC(=O)C1CC(O)CN1S(=O)(=O)c1ccc(Cl)cc1)c1ccccc1 (centres undefined),,inactive: -8.03%

# Source: PubChem BioAssay AID686978 (National Center for Advancing Translational Sciences (NCATS), 2013)
